Data reported in the supplement of paper PMC4166925.
± gives the standard deviation of the averaged measurements. In all, about 33,000 sequences were measured (“E-score (dimensionless, -0.5 to 0.5)”: median about -0.049, highest 2% from about 0.37 on). This is one part of the list.

These sequences were tested on T1, PmTbr T-box DNA-binding domain (GST fusion) (assay: PBM E-score of 8-mer (E-score (dimensionless, -0.5 to 0.5)); Tbr is Tbrain of the sea star Patiria miniata (Pm) or the sea urchin Strongylocentrotus purpuratus (Sp); higher = stronger binding preference; most listed sequences are background and not binding sites). Conditions: the construct has about 5 more residues each side.
T1 sequence: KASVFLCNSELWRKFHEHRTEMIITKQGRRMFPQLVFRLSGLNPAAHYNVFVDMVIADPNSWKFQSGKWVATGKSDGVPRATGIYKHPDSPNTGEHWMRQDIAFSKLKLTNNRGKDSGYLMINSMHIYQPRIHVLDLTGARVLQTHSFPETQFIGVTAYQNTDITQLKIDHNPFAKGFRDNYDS
Protocol: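 Universal protein-binding microarray (Agilent AMADID 016060, 60-bp probes with a 35-bp variable region) incubated with 200 nM GST-fused Patiria miniata Tbr T-box DNA-binding domain (residues 272-466) in PBS pH 7.5. Scored for every ungapped 8-mer (given with its reverse complement) by the Universal PBM Analysis Suite as E-score (modified Wilcoxon-Mann-Whitney enrichment, range -0.5 to 0.5; >0.45 counts as bound) and Z-score of median probe intensity. Two replicate arrays (datasets 1 and 2).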
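Further: 200 nM protein in PBS on universal arrays averaged over duplicate arrays.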

| Sequence | PBM E-score of 8-mer |
| --- | --- |
| CGGGGTGC | 0.28 ± 0.024 |
| CTGCTGTA | -0.129 ± 0.066 |
| GAGATGTA | -0.204 ± 0.084 |
| GAAGAAGA | -0.259 ± 0.027 |
| CCTGCTTA | 0.0896 ± 0.0013 |
| AAACTGCT | 0.147 ± 0.088 |
| CTTGTTAA | 0.236 ± 0.09 |
| AACTGCCT | -0.00639 ± 0.041 |
| ATCCCCTC | -0.00477 ± 0.043 |
| CGTACGAA | 0.048 ± 0.031 |
| AAACTGTC | 0.16 ± 0.056 |
| ACTTTCTC | 0.166 ± 0.13 |
| GTCGATCA | 0.00814 ± 0.021 |
| GCCCGGTA | -0.271 ± 0.056 |
| GGTTTCAA | -0.126 ± 0.099 |
| ATTCGTTA | 0.111 ± 0.0073 |
| AATCTTGA | -0.0656 ± 0.025 |
| CGTAAATA | -0.21 ± 0.062 |
| ATTTTCCG | -0.111 ± 0.017 |
| ATTGAGCG | 0.106 ± 0.022 |
| CGGACTGC | 0.0114 ± 0.052 |
| AATGCATG | -0.16 ± 0.068 |

| Sequence | PBM E-score of 8-mer |
| --- | --- |
| CAGTTAAC | 0.0644 ± 0.026 |
| GCTGCCCC | -0.145 ± 0.0076 |
| AGGCATGG | -0.326 ± 0.036 |
| ACCCATAA | 0.0467 ± 0.0045 |
| AGATCGAG | -0.0944 ± 0.065 |
| GCCCCCTA | -0.159 ± 0.066 |
| AGTGCCTG | -0.0756 ± 0.078 |
| AGCATGCC | -0.223 ± 0.041 |
| GGAAGTCA | -0.0518 ± 0.11 |
| CGCCCGCA | -0.0304 ± 0.051 |
| CACGCTAA | 0.233 ± 0.028 |
| AATGCTTA | -0.147 ± 0.038 |
| GGGGTCAA | -0.137 ± 0.12 |
| AAACGAGA | -0.232 ± 0.011 |
| TGGCAGAA | -0.106 ± 0.0079 |
| CCCTGTTC | -0.123 ± 0.046 |
| GATCCCCA | 0.0461 ± 0.12 |
| CGAATCTA | -0.072 ± 0.023 |
| CAACTGGG | -0.0457 ± 0.021 |
| GAGCACAC | -0.0489 ± 0.053 |
| ATCTCGCG | 0.285 ± 0.0059 |
| CTTCCAAG | -0.215 ± 0.039 |

| Sequence | PBM E-score of 8-mer |
| --- | --- |
| GTTGCATA | -0.0721 ± 0.021 |
| AAGCCATG | -0.192 ± 0.026 |
| ATGTTAAC | 0.161 ± 0.015 |
| AGTCTCAG | -0.179 ± 0.013 |
| ATCTACTA | -0.199 ± 0.014 |
| ACTGTTTA | 0.0158 ± 0.027 |
| GACACCGA | 0.286 ± 0.024 |
| AGCAGCTA | 0.0562 ± 0.027 |
| AACATAAG | -0.0822 ± 0.0087 |
| CACTCAGG | -0.0788 ± 0.04 |
| AACCCACC | -0.215 ± 0.04 |
| GATACTTA | -0.121 ± 0.055 |
| CCAATCGA | 0.014 ± 0.016 |
| AATCGCTA | 0.151 ± 0.0042 |
| CCTAAAGC | -0.0817 ± 0.036 |
| TGAACTCA | -0.0105 ± 0.0096 |
| GCCCTGAA | -0.142 ± 0.03 |
| ATCCATAC | -0.386 ± 0.031 |
| GGGAGTAC | -0.0915 ± 0.074 |
| ACCCAACG | 0.00232 ± 0.017 |
| GGGTAGAA | -0.0697 ± 0.013 |
| ATGAAATA | -0.012 ± 0.042 |

| Sequence | PBM E-score of 8-mer |
| --- | --- |
| ATATGGAC | -0.188 ± 0.05 |
| CCCATTCC | -0.145 ± 0.061 |
| GCAGGCCC | -0.257 ± 0.013 |
| CTTCAACC | -0.0697 ± 0.17 |
| AAGATTAG | -0.125 ± 0.036 |
| AAACTCCC | -0.161 ± 0.07 |
| ATTTTCGA | -0.176 ± 0.098 |
| GATGTCCC | -0.208 ± 0.02 |
| GCCTTAGC | 0.211 ± 0.024 |
| GTGGTCTA | -0.211 ± 0.027 |
| CCTAACCC | -0.127 ± 0.05 |
| AACTAGAA | -0.000525 ± 0.0071 |
| GTCAGGAC | -0.000415 ± 0.072 |
| ACGATGCT | 0.0361 ± 0.088 |
| ACACCGTC | 0.32784 ± 8.5e-05 |
| AGCGCCCG | 0.0811 ± 0.037 |
| CTAGTAGA | -0.0181 ± 0.012 |
| CACGGCCC | 0.0295 ± 0.02 |
| CTTGGGAA | -0.0378 ± 0.031 |
| AATAGAAC | -0.102 ± 0.035 |
| GCGTTGAA | 0.143 ± 0.026 |
| CAGTTGAC | 0.212 ± 0.076 |

| Sequence | PBM E-score of 8-mer |
| --- | --- |
| CCGCGCCA | 0.0276 ± 0.0065 |
| AACCGCGT | 0.00231 ± 0.048 |
| CACGTTCG | 0.234 ± 0.019 |
| CTAGGAGA | -0.123 ± 0.014 |
| ATACAAAC | -0.136 ± 0.0033 |
| CACAGGTC | 0.15 ± 0.028 |
| ATAGGCCG | -0.138 ± 0.03 |
| GTACTTAA | -0.16 ± 0.011 |
| CCCCTAAG | -0.0688 ± 0.042 |
| GAATTGGA | 0.0194 ± 0.0076 |
| CGTTGCCC | -0.109 ± 0.014 |
| CATGAACC | -0.0747 ± 0.069 |
| CACGTAGC | 0.125 ± 0.054 |
| TGACTCCA | -0.253 ± 0.061 |
| TTAATAAA | -0.182 ± 0.079 |
| GTAATGGA | -0.128 ± 0.016 |
| GACCATGC | -0.0781 ± 0.035 |
| AAGACTTC | -0.0693 ± 0.0056 |
| CCGTCAGG | 0.184 ± 0.035 |
| CCGATACG | -0.232 ± 0.019 |
| ACTCCTGG | 0.13 ± 0.079 |
